Laboratory results: PubChem BioAssay AID651820 (National Center for Advancing Translational Sciences (NCATS), 2012)
Hit rate of the full screen: of about 340,000 compounds, about 12,000 (3.5%) were called active. The inconclusive results got no clear call from the source; some entries with a clear call stand among them for comparison. The call rests on the fitted dose curve; in most records, active means well fitted inhibition curve with a large enough effect; inconclusive means small, poorly fitted or top-dose-only effect, or another doubt; inactive means no such curve, though single readings can be large or run the other way. No potency is given beside an inconclusive call; the fits are too rough.

Assay: qHTS Assay for Inhibitors of Hepatitis C Virus (HCV)
Conditions: Huh7.5.1 HCVcc-Cre (HCVcc is cell-culture hepatitis C virus) infection, luciferase reporter, 44 h; activity change, negative = inhibition: at 41.8 µM (top of the series)
In short: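 Compounds are dispensed onto cells plated 4 h earlier at 1,000 per well, with HCVcc-Cre virus (about 0.5 moi) added next. Following 44 h of culture, luminescent signal is measured for 15 sec after 15 min with substrate at room temperature.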
On the % scale 0 is the no-effect control and ±100 the full control effect; potency means the concentration at half of the fitted maximal effect; tags describe the fitted curve by direction and shape.

SMILES | Potency | activity change, negative = inhibition
Cc1onc(-c2ccccc2)c1NC(=O)N(Cc1ccccc1)C(C)C | inactive | –
CC(C)NCC(O)c1ccc(C2CCCC2)cc1 (stereo not given) | inconclusive [inhibitor, single point] | –
CC(=O)N1CCN(c2ccc(NC(=O)c3ccc(N4CCCC4)c([N+](=O)[O-])c3)cc2Cl)CC1 | active: 10 µM | –
COc1cccc(NC(=O)CN(C)C(=O)c2cc(C3CC3)nn2-c2ccccc2)c1 | inactive | –
COC(=O)c1cc(S(=O)(=O)N2CCC(c3ccccc3)C2)c[nH]1 (stereo not given) | active: 11.2 µM | –
CCn1c(=O)cc(SCC(=O)N2CCN(c3ccccc3F)CC2)c2ccccc21 | active: 14.1 µM | –
Cc1nc(-c2ccccc2)cn(O)c1=O | inactive | –
Cc1onc(-c2ccccc2Cl)c1C(=O)N1CCN(c2cccc(Cl)c2)CC1 | inconclusive [inhibitor, full curve] | –
O=C1N[C@H](Cc2ccccc2)COC(=O)[C@H](Cc2ccc(F)cc2)C/C=C\C[C@@H]1CC(=O)N(CCO)Cc1ccccc1 | inconclusive [inhibitor, single point] | –
CC(NC(=O)c1ccco1)C(c1cccs1)N1CCN(c2ccccc2F)CC1 (stereo not given) | inconclusive [inhibitor, partial curve] | –
CCOC(=O)c1nc(-c2ccc3c(c2)OCO3)[nH]c1C | inconclusive [inhibitor, single point] | –
O=[N+]([O-])c1ccc(CSc2ccccn2)cc1 | inactive | –
CC1(C)Cc2cccc(OCC(=O)N3CCN(c4ccccc4F)CC3)c2O1 | inconclusive [inhibitor, single point] | –
c1ccc2oc(-c3nn4c(Cn5cnc6ccccc65)nnc4s3)cc2c1 | inactive | –
Cc1occc1C(=O)N1CCCC(CO)(Cc2ccc(F)cc2F)C1 (stereo not given) | inactive | –
COc1ccc(-c2nncnn2)cc1 | inactive | –
CCOc1cc2[nH]c(=S)n(CCCC(=O)NCc3ccco3)c(=O)c2cc1OCC | inconclusive [inhibitor, partial curve] | –
Cc1ccc(-c2csc3nc(SCC(N)=O)n(Cc4ccccc4)c(=O)c23)cc1 | inconclusive [inhibitor, single point] | –
O=C(C1CCN(Cc2cc(Cl)ccc2O)CC1)N1CCN(Cc2ccccc2)CC1 | inconclusive [inhibitor, partial curve] | –
O=C(COC(=O)CNC(=O)c1cccc([N+](=O)[O-])c1)NCc1ccco1 | inactive | –
CC1C(=O)N(Cc2ccccc2)c2ccccc2N1C(=O)c1ccccc1 (stereo not given) | inconclusive [inhibitor, single point] | –
CCOC(=O)NC1(NC2CCCCC2)Oc2ccccc2O1 | inconclusive [inhibitor, single point] | –
COCCOc1nc2c(c(=O)n(C)c(=O)n2C)n1Cc1cccc(OC)c1 | active: 11.2 µM | –
COc1ccc(N(CC(=O)Nc2nc3ccc(C)cc3s2)S(=O)(=O)c2c(C)nn(C)c2C)cc1 | inconclusive [inhibitor, single point] | –
O=C1Cc2ccccc2N1c1ccccc1 | inactive | –

SMILES | Potency | activity change, negative = inhibition
Cc1ccc(C(C)C)c(OCCOCCN2CCNCC2)c1 | inconclusive [inhibitor, single point] | –
COc1ccc(CN(C)C(=O)C(CCSC)NS(=O)(=O)c2ccc3c(c2)OCCO3)c(OC)c1OC (stereo not given) | inactive | –
Cc1cc(O)ccc1Nc1nc(-c2cccnc2)cs1 | inactive | –
Cc1ccc(-c2cc(C(=O)NCCc3ccc(S(N)(=O)=O)cc3)c3ccccc3n2)cc1 | inconclusive [inhibitor, single point] | –
O=C1Cc2ccccc2C(c2ccc(Cl)cc2)N1 (stereo not given) | inactive | –
O=C(Nc1cccc2ncccc12)c1ccc([N+](=O)[O-])o1 | active: 25.1 µM | –
C/C(=N\Nc1nc2ccccc2[nH]1)c1ccc2c(c1)OCO2 | inconclusive [inhibitor, single point] | –
O=C(Nc1ccc(SC(F)F)cc1)c1ccc2nccnc2c1 | active: 3.55 µM | –
C=CCNc1nc(N)c([N+](=O)[O-])c(N2CCCCCC2)n1 | inconclusive [inhibitor, partial curve] | –
Cc1nc(C(=O)NCc2ccccc2)sc1C1(C)CC(c2cccnc2)=NO1 (stereo not given) | inconclusive [inhibitor, partial curve] | –
COc1ccc(NC(=O)CN2CCN(CC(=O)Nc3ccc(F)cc3)CC2)cc1Cl | inactive | –
COc1ccc(OCC(=O)Nc2cc3oc4ccccc4c3cc2OC)cc1 | inconclusive [inhibitor, partial curve, poor fit] | –
CCOC(=O)[C@H]1[C@H]2COc3ccc(OC)cc3[C@@H]2N2C(=O)c3ccccc3NC(=O)[C@@]12C | inconclusive [inhibitor, partial curve, poor fit] | –
CCSc1nnc(-c2ccccc2SC)o1 | inactive | –
O=C(COC(=O)c1cc2ccccc2cc1O)NC1CCCCC1 | inconclusive [inhibitor, single point] | –
CC1CCN(C(=O)CCCN2C(=O)c3cccnc3Oc3ccc(Cl)cc32)CC1 | inconclusive [inhibitor, full curve, poor fit] | –
S=c1[nH]nc2ccccn12 | inactive | –
CCCCN(C(=O)c1cccc(S(=O)(=O)N(CC)c2ccccc2)c1)c1c(N)n(CC(C)C)c(=O)[nH]c1=O | inactive | –
CC(C)(C)NC(=O)C(c1ccc(Cl)cc1)N(CCO)C(=O)c1snc(C(N)=O)c1N (stereo not given) | inconclusive [inhibitor, single point] | –
CCCCOCCCNC(=O)N[C@H](C(=O)OC)C(C)C | inconclusive [inhibitor, single point] | –
CC1CN(c2ccc([N+](=O)[O-])c(NCCOc3ccccc3)c2)CCN1 (stereo not given) | active: 10 µM | –
CCOc1ccccc1OCC(=O)Nc1cc(S(=O)(=O)N2CCCCC2)ccc1OC | inconclusive [inhibitor, single point] | –
S=C(Nc1cc(Cl)cc(Cl)c1)NC1CCN(Cc2ccccc2)CC1 | active: 10 µM | –
COc1ccc(OC)c(/C=C/C(=O)N(C)CC(=O)Nc2ccc(N3CCOCC3)cc2)c1 | inconclusive [inhibitor, partial curve, poor fit] | –
Cc1c(O)ccc(/C(Cc2ccc3ccccc3n2)=N\O)c1O | active: 11.2 µM | –

SMILES | Potency | activity change, negative = inhibition
CCCCCn1ccc(=N)cc1 | active: 6.31 µM | –
CCCCN1C(=O)C(=O)c2cc(Cl)ccc21 | – | inactive: 37.6% [at 8.37 µM]
COc1cc(C#Cc2ccc3cc(C(C)(C)O)oc(=O)c3c2)cc(OC)c1 | inconclusive [inhibitor, partial curve] | –
Cc1cc(-c2nc3ccccc3o2)c2ccccc2n1 | active: 14.1 µM | –
COc1cc(S(=O)(=O)NCc2ccc3c(c2)OCO3)ccc1F | inactive | –
CCCCN1C(=O)C(=O)N(CC(=O)Nc2cc(S(=O)(=O)N(C)C)ccc2C)C1=O | inconclusive [inhibitor, partial curve, poor fit] | –
CC(=O)N(CCC(Cc1ccccc1)c1ccco1)Cc1ccco1 (stereo not given) | active: 11.2 µM | –
COc1ccc(C(=O)NCCNc2nc3c(C)cccc3cc2C#N)cc1OC | inconclusive [inhibitor, partial curve] | –
CCOC(=O)c1cnc2ccc(C)cc2c1Nc1ccc(N2CCOCC2)cc1 | inconclusive [inhibitor, single point] | –
Cc1ccc(Oc2ccc(C(=O)NCc3ccncc3)cc2)cc1 | active: 3.16 µM | –
BrC(=C\c1ccccc1)/C=N/N1CCN(c2ccccn2)CC1 | inconclusive [inhibitor, single point] | –
Cc1ccc(Nc2nc(C3CC3)cs2)cc1 | inactive | –
COc1ccccc1OCCNC(=O)c1cc(C2CC2)nc2c1cnn2C(C)C | active: 1.26 µM | –
COCCCn1c(SCC(=O)Nc2ccc(NC(=O)c3ccco3)c(OC)c2)nc2ccccc2c1=O | inconclusive [inhibitor, partial curve] | –
CCOc1ccc(NS(=O)(=O)c2ccc(OC)c(NC(=O)c3ccc4c(c3)OCCO4)c2)cc1 | inconclusive [inhibitor, single point] | –
C=CCNc1nc(N)c(C(=C(C#N)C#N)c2ccc(Br)cc2)s1 | inconclusive [inhibitor, single point] | –
CCCCn1c(NC(=O)C2CCCCC2)nc2ccccc21 | active: 12.6 µM | –
COc1ccccc1NC(=O)c1ccc(S(=O)(=O)N(C)c2ccccc2)cc1 | inactive | –
CCc1nc2ccccc2n1CC1CC1(Cl)Cl (stereo not given) | inconclusive [inhibitor, single point] | –
COCCNC(=S)N/N=C(\C)c1ccc(Cl)c(Cl)c1 | inconclusive [inhibitor, partial curve] | –
CCN(Cc1ccc(OC)c(COC)c1)CC1CCCN(CCc2cccc(OC)c2)C1 (stereo not given) | active: 7.94 µM | –
O=C1NC2CCc3nc4ccccc4c(=O)n3C2=Nc2ccccc21 (stereo not given) | inconclusive [inhibitor, partial curve, poor fit] | –
CCOc1ccccc1N/C=C(\C#N)c1nc2ccccc2n1C | inconclusive [inhibitor, partial curve, poor fit] | –
COc1ccc(-c2cc(=O)c3cc(O)ccc3o2)cc1 | active: 5.62 µM | –
O=C1/C(=C/c2ccc(F)c(F)c2)CSc2sccc21 | inconclusive [inhibitor, single point] | –
